Data reported in the supplement of paper PMC9174493.
Some of the results follow. Single values of this set are uncertain. Values with irradiation are relative to irradiated vehicle.

Legend:
A549-Dual [1] = assay: NF-kB reporter (SEAP) activity, viability-corrected, relative to vehicle (fold change vs vehicle); higher = more activation of STING-IRF / NF-kB immune response reporter
A549-Dual [2] = assay: ISRE reporter (Lucia luciferase) activity, viability-corrected, relative to vehicle (fold change vs vehicle); higher = more activation of STING-IRF / NF-kB immune response reporter
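For NF-kB reporter (SEAP) activity, viability-corrected, relative to vehicle in this document: viability correction based on the alamar blue assay, with concentrations leaving 10% survival or less dropped.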

Row | SMILES | NF-kB reporter (A549-Dual [1]; 0.1 µM, irradiation: 8 Gy/4 fr) | NF-kB reporter (A549-Dual [1]; 0.1 µM, irradiation: none) | NF-kB reporter (A549-Dual [1]; 0.3 µM, irradiation: 8 Gy/4 fr) | NF-kB reporter (A549-Dual [1]; 0.3 µM, irradiation: none) | NF-kB reporter (A549-Dual [1]; 1 µM, irradiation: 8 Gy/4 fr) | NF-kB reporter (A549-Dual [1]; 1 µM, irradiation: none) | NF-kB reporter (A549-Dual [1]; 3 µM, irradiation: 8 Gy/4 fr) | NF-kB reporter (A549-Dual [1]; 3 µM, irradiation: none) | NF-kB reporter (A549-Dual [1]; 10 µM, irradiation: 8 Gy/4 fr) | NF-kB reporter (A549-Dual [1]; 10 µM, irradiation: none) | ISRE reporter (A549-Dual [2]; 0.1 µM, irradiation: 8 Gy/4 fr) | ISRE reporter (A549-Dual [2]; 0.1 µM, irradiation: none) | ISRE reporter (A549-Dual [2]; 0.3 µM, irradiation: 8 Gy/4 fr) | ISRE reporter (A549-Dual [2]; 0.3 µM, irradiation: none) | ISRE reporter (A549-Dual [2]; 1 µM, irradiation: 8 Gy/4 fr) | ISRE reporter (A549-Dual [2]; 1 µM, irradiation: none) | ISRE reporter (A549-Dual [2]; 3 µM, irradiation: 8 Gy/4 fr) | ISRE reporter (A549-Dual [2]; 3 µM, irradiation: none) | ISRE reporter (A549-Dual [2]; 10 µM, irradiation: 8 Gy/4 fr) | ISRE reporter (A549-Dual [2]; 10 µM, irradiation: none)
1 | CC(=O)OC1C(=O)C2(C)C(O)CC3OCC3(OC(C)=O)C2C(OC(=O)c2ccccc2)C2(O)CC(OC(=O)C(O)C(NC(=O)c3ccccc3)c3ccccc3)C(C)=C1C2(C)C (stereo not given) [Paclitaxel] | 1.12 | 2.68 | 1.34 | 2.62 | 1.09 | 2.35 | 1.3 | 2.2 | 1.28 | 2.03 | 0.52 | 5.18 | 0.728 | 4.77 | 0.62 | 4.43 | 0.906 | 6.35 | 0.774 | 7.04
2 | Cc1nnc(C(=O)NC(C)(C)c2nc(C(=O)NCc3ccc(F)cc3)c(O)c(=O)n2C)o1 [Raltegravir (MK-0518)] | 1.13 | 1.5 | 1.36 | 1.55 | 1.31 | 1.23 | 1.67 | 1.31 | 0.872 | 0.51 | 1.19 | 1.37 | 1.05 | 1.27 | 1.14 | 1.14 | 0.914 | 1.03 | 0.978 | 0.874
3 | CCOC(=O)c1ccc(OC(=O)CCCCCNC(=N)N)cc1.CS(=O)(=O)O [Gabexate Mesylate] | 0.948 | 0.99 | 1.07 | 0.925 | 0.912 | 0.877 | 1.02 | 0.786 | 1.02 | 0.992 | 1.01 | 0.819 | 1.18 | 1.01 | 0.98 | 0.929 | 1.06 | 0.773 | 1.04 | 0.92
4 | CCOc1ccc(NC(C)=O)cc1 [Phenacetin] | 0.84 | 1.11 | 0.821 | 1.18 | 1.24 | 0.888 | 1.35 | 0.944 | 0.878 | 0.896 | 1.05 | 0.868 | 0.832 | 0.859 | 0.85 | 0.823 | 0.898 | 1.02 | 0.881 | 0.871
5 | CN(C)c1nc(N(C)C)nc(N(C)C)n1 [Altretamine] | 1.06 | 1.23 | 1.2 | 1.14 | 0.937 | 0.98 | 1.08 | 0.817 | 0.908 | 0.879 | 1.04 | 1.1 | 1.44 | 1.08 | 0.985 | 0.928 | 1.16 | 0.622 | 0.9 | 0.784
6 | C#Cc1cccc(Nc2ncnc3cc4c(cc23)OCCOCCOCCO4)c1 [Icotinib] | 1.3 | 1.27 | 1.2 | 1.61 | 1.09 | 1.9 | 1.27 | 1.61 | 1.19 | 1.18 | 1.13 | 1.22 | 1.18 | 1.29 | 1.19 | 1.14 | 1.12 | 0.851 | 1.12 | 0.94
7 | CNCC(O)c1ccc(O)c(O)c1.O=C(O)C(O)C(O)C(=O)O (stereo not given) [Epinephrine bitartrate] | 1.38 | 1.28 | 0.992 | 1.55 | 1.02 | 1.79 | 1.15 | 1.53 | 1.07 | 1.08 | 1.27 | 1.25 | 1.04 | 1.31 | 1.04 | 1.23 | 1.23 | 1.23 | 1.18 | 1.11
8 | COc1nc(N)nc2c1ncn2C1OC(CO)C(O)C1O (stereo not given) [Nelarabine] | 0.877 | 1.09 | 0.897 | 1.13 | 0.739 | 1.07 | 0.932 | 0.776 | 0.896 | 1.01 | 0.858 | 0.9 | 0.984 | 1.03 | 0.749 | 0.926 | 0.878 | 0.72 | 0.899 | 0.761
9 | CC(C)Cc1ccc(C(C)C(=O)O)cc1 (stereo not given) [Ibuprofen] | 0.956 | 1.36 | 1.09 | 1.52 | 1.59 | 1.06 | 1.59 | 1.02 | 1.38 | 0.869 | 1.04 | 1.1 | 0.886 | 0.904 | 0.973 | 1.07 | 0.917 | 1.08 | 0.907 | 0.986
10 | COc1ccc(C2CNC(=O)C2)cc1OC1CCCC1 (stereo not drawn) [S- (+)-Rolipram] | 1.12 | 1.01 | 1.02 | 0.945 | 0.93 | 0.87 | 0.695 | 0.943 | 0.716 | 0.403 | 0.958 | 0.988 | 0.845 | 0.712 | 0.949 | 0.802 | 0.64 | 0.781 | 0.766 | 0.834
11 | CN(C)CCN(Cc1ccc(Cl)cc1)c1ccccn1.Cl [Chloropyramine hydrochloride] | 1.25 | 2.06 | 1.11 | 1.71 | 1.62 | 1.13 | 1.8 | 1.22 | 1.36 | 1.28 | 1.09 | 1.8 | 1.06 | 1.39 | 1.27 | 1.23 | 1.01 | 1.53 | 1.3 | 1.21
12 | NC1CN(c2c(F)cc3c(=O)c(C(=O)O)cn(C4CC4F)c3c2Cl)CC12CC2.NC1CN(c2c(F)cc3c(=O)c(C(=O)O)cn(C4CC4F)c3c2Cl)CC12CC2.O.O.O (stereo not given) [Sitafloxacin Hydrate] | 0.925 | 1.19 | 0.769 | 0.984 | 0.895 | 1.23 | 0.806 | 1.16 | 0.903 | 0.899 | 0.835 | 1.19 | 0.844 | 0.937 | 0.885 | 1.05 | 0.847 | 0.788 | 0.889 | 0.815
13 | O=C(O)c1ccccc1OP(=O)(O)O [Fosfosal] | 1.04 | 1.01 | 0.941 | 0.804 | 1.03 | 0.83 | 1.13 | 0.811 | 0.847 | 1.01 | 1.04 | 0.867 | 0.991 | 0.727 | 0.718 | 0.583 | 0.713 | 0.834 | 0.795 | 0.844
14 | COc1cc2c(Oc3ccc4[nH]c(C)cc4c3F)ccnc2cc1OCC1(N)CC1.Cl.Cl [Anlotinib (AL3818) dihydrochloride] | 0.903 | 0.927 | 0.815 | 1.01 | 0.977 | 1.24 | 1.14 | 1.38 | 1.32 | 1.72 | 0.933 | 1.22 | 0.93 | 0.905 | 0.922 | 1.07 | 1.05 | 2.3 | 0.98 | 3.19
15 | Cl.N=C1CCCN1Cc1[nH]c(=O)[nH]c(=O)c1Cl [Tipiracil hydrochloride] | 1.14 | 1.25 | 0.996 | 1.31 | 0.943 | 1.64 | 1.06 | 1.43 | 0.995 | 1.14 | 1.1 | 1.31 | 1.1 | 1.17 | 1.1 | 1.24 | 1.21 | 1.04 | 1.07 | 1.05
16 | Nc1ccc(O)c(C(=O)O)c1 [Mesalamine] | 0.742 | 0.974 | 0.892 | 1.03 | 1.13 | 0.864 | 1.13 | 0.851 | 0.884 | 0.936 | 0.773 | 0.901 | 0.72 | 0.821 | 0.699 | 0.75 | 0.781 | 0.794 | 0.795 | 0.906
17 | Nc1nnc(-c2cccc(Cl)c2Cl)c(N)n1 [Lamotrigine] | 0.978 | 0.927 | 0.917 | 0.922 | 0.904 | 0.947 | 0.832 | 1.11 | 1.13 | 1.03 | 1.05 | 1.01 | 1.01 | 0.962 | 0.98 | 0.969 | 1.04 | 0.968 | 1.12 | 0.988
18 | CNC1CCC(c2ccc(Cl)c(Cl)c2)c2ccccc21.Cl (stereo not given) [Sertraline HCl] | 0.944 | 0.857 | 1.12 | 0.889 | 1.03 | 0.851 | 1.37 | 0.801 | 0.67 | 0.734 | 1.01 | 0.819 | 0.977 | 0.931 | 0.905 | 0.932 | 1.01 | 1.02 | 0.677 | 2.18
19 | COc1c(OC2OC(CO)C(O)C(O)C2O)cc2c(c1OC)-c1ccc(SC)c(=O)cc1C(NC(C)=O)CC2 (stereo not given) [Thiocolchicoside] | 1.12 | 1.65 | 1.51 | 1.31 | 1.87 | 1.5 | 1.7 | 1.1 | 1.56 | 1.16 | 1.15 | 1.33 | 1.38 | 1.01 | 1.2 | 1.25 | 1.08 | 1.18 | 1.03 | 0.862
20 | CC1=NN(c2ccc(C)c(C)c2)C(=O)/C1=N\Nc1cccc(-c2cccc(C(=O)O)c2)c1O.NCCO.NCCO [Eltrombopag Olamine] | 0.947 | 1.14 | 1.02 | 1.04 | 0.955 | 1.34 | 0.859 | 1.24 | 0.925 | 1.11 | 0.995 | 0.895 | 0.889 | 0.734 | 0.887 | 0.703 | 0.709 | 0.536 | 0.753 | 0.663
21 | CCC1=CC2CN(C1)Cc1c([nH]c3ccccc13)C(C(=O)OC)(c1cc3c(cc1OC)N(C)C1C(O)(C(=O)OC)C(OC(C)=O)C4(CC)C=CCN5CCC31C54)C2.O=C(O)C(O)C(O)C(=O)O.O=C(O)C(O)C(O)C(=O)O (stereo not given) [Vinorelbine Tartrate] | 1.15 | 2.66 | 0.877 | 2.88 | 0.824 | 2.97 | 0.925 | 2.12 | 0.704 | 1.94 | 0.278 | 2.11 | 0.104 | 1.33 | 0.132 | 1.05 | 0.102 | 0.668 | 0.1 | 0.738
22 | Cc1nc(Nc2ncc(C(=O)Nc3c(C)cccc3Cl)s2)cc(N2CCN(CCO)CC2)n1 [Dasatinib] | 0.735 | 1.15 | 0.699 | 1.13 | 0.629 | 1.15 | 0.716 | 0.939 | 0.914 | 0.917 | 0.358 | 0.614 | 0.269 | 0.497 | 0.186 | 0.495 | 0.187 | 0.383 | 0.159 | 0.382
